Screen size: about 48,000 compounds; about 450 (0.94%) were called active. Another 19% or so got no clear call; they are omitted. The call rests on the fitted dose curve; in most records, active means well fitted inhibition curve with a large enough effect; inconclusive means small, poorly fitted or top-dose-only effect; inactive means no such curve, though single readings can be large or run the other way. The list shows a part of the results.
Test: Primary qHTS for Identification of Small Molecule Inhibitors of Huntingtin Promoter Activity; further: nearly all actives have a fitted effect of over 50% in size
Settings: HEK293 HTT promoter firefly luciferase reporter (activity 0% = vehicle and -100% = no light), 24 h; series mostly up to 57.5 µM; activity change, negative = inhibition: at the top concentration
Method in brief: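 Luminescence was read after Dual-Glo reagent and a 10 min room-temperature incubation. Values were normalized to vehicle (0% activity) and zero RLU (-100% activity). Reporter HEK293 cells had been exposed to compounds (up to 57.5 uM final) for 24 h.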

Activity change, negative = inhibition, inactive:
CCOc1cc(C2c3c(oc4ccc(F)cc4c3=O)C(=O)N2Cc2ccc(C)cc2)ccc1O (centres undefined) 6.75%
CCCCNC(=O)CSc1nc2n[nH]c(C)c2c(=N)n1-c1ccccc1CC -23.3%
O=C(COc1ccccc1F)Nc1nnc(S(=O)(=O)N2CCCCCC2)s1 -19.4%
Cc1ccccc1Cc1c(C)nc2nc(SCC(=O)NC(C)c3ccccc3)nn2c1C (centres undefined) -29.3%
CCC1CN(C(=O)Nc2cccc3c2CCCC3)c2cc(C)ccc2O1 (centres undefined) -25.4%
CCCCNC(=O)C1CCN(Cc2nc(-c3ccc(OC)c(OC)c3)oc2C)CC1 7%
COc1ccc(CCNC(=O)CSc2nnc(-c3ccc(C)cc3)c(-c3ccc(C)cc3)n2)cc1OC 3.67%
Cc1ccc(-c2noc(-c3ccc(NCC4CCCO4)c([N+](=O)[O-])c3)n2)cc1 (centres undefined) 3.35%
COc1cccc(C2=NN(S(C)(=O)=O)C(c3cn(-c4ccccc4)nc3-c3cccs3)C2)c1 (centres undefined) 1.61%
COc1ccc(CNC(=O)CN(C)c2nn3c(=O)cc(C)nc3s2)cc1 -11.3%
COc1ccccc1NC(=O)N1CC=C(c2c[nH]c3ccccc23)CC1 -17%
CCOc1ccc(C(=O)NCCS(=O)(=O)N2CCN(c3cccc(Cl)c3)CC2)cc1 -21.9%
Cc1ccc(-c2nnc(Nc3ccc(Cl)cc3)c3ccccc23)cc1S(=O)(=O)NCC1CCCO1 (centres undefined) -27.5%
COc1ccc(C(=O)c2cn(Cc3ccccc3F)c3ccc(F)cc3c2=O)cc1 -33.3%
COc1ccc(-c2[nH]c(-c3ccc(OC)c(OC)c3)nc2SCC(=O)Nc2ccccc2)cc1 -20.4%
Cc1cccc(NC(=O)c2oc3ccc(S(=O)(=O)N4CCCCC4)cc3c2C)c1C -21.1%
Cn1ccc2cc(S(=O)(=O)N3CCCN(C(=O)Nc4ccc(Br)cc4)CC3)ccc21 -31.4%
CCOC(=O)c1ccc2c(c1)N(CC(=O)Nc1cc(F)ccc1F)C(=O)c1ccccc1S2 -14.5%
O=C(NCCCN1CCN(c2ccc(F)cc2)CC1)c1cc2c(s1)-c1ccccc1OC2 -28.4%
C[N+]1(C)[C@@H]2CC(OC(=O)[C@H](CO)c3ccccc3)C[C@H]1[C@@H]1O[C@@H]12 (some centres undefined) 12.6%
OCC(CO)N[C@H]1C[C@](O)(CO)[C@@H](O)[C@H](O)[C@H]1O -5.77%
CSc1ccccc1NC(=O)C1=CC(c2ccc3c(c2)OCO3)=NS(=O)(=O)N1C -24.5%
CC1=C(C(N)=O)C(c2cccc(C)c2)n2nc(-c3ccc(Cl)cc3)nc2N1 (centres undefined) -8.42%
CCOC(CN1CCN(CC(C)C(=O)c2ccccc2)CC1)c1ccccc1 (centres undefined) -10.3% [at 25.2 µM]
COc1ccc(NC(=O)c2c(NC(=O)COc3ccc(Cl)cc3)sc3c2CCCCC3)cc1 62.5%
Cc1cccc(-c2nc3cc(NC(=O)Cc4ccc(Cl)cc4)ccc3o2)c1 -8.98%
CCN(C(=O)Cn1nc2c3cc(F)ccc3n(Cc3cccc(C)c3)cc-2c1=O)c1cccc(C)c1 -2.48%
CCOC(=O)CCN(Cc1ccccc1)S(=O)(=O)c1csc(C(N)=O)c1 -8.1%
COc1cc(OC)c(NC(=O)N2CCOc3ccc(C)cc32)cc1Cl 0.976%
COc1ccc(Cn2nnc3c(=O)[nH]c(C4CCCN(C(=O)c5ccccc5Cl)C4)nc32)cc1OC (centres undefined) -19.6%
N#Cc1cc2c(=O)n3ccccc3nc2n(-c2nnc(SCc3ccc(F)cc3)s2)c1=O -5.54%
CC1CN(C(=O)CCC(=O)NCc2cccs2)c2ccccc2O1 (centres undefined) -18.9%
COc1ccc(NC(=O)c2c(NCc3ccc(C)o3)sc3c2CCC(C)C3)cc1 (centres undefined) -3.54%
Cc1ccc(S(=O)(=O)c2cn(C)c3cc(N4CCN(c5ccccc5)CC4)c(F)cc3c2=O)cc1 -5.05%
CCOC(=O)N1CCc2c(sc3c2c(=O)n(Cc2ccccc2)c(=O)n3Cc2cccc(Cl)c2)C1 -1.82%
COc1cc(NC(=O)C2=C(C)Nc3nnnn3C2c2ccc(SC)cc2)c(OC)cc1Cl (centres undefined) -2.54%
CCOc1ccccc1NC(=O)C1CCN(S(=O)(=O)c2ccc(Br)cc2)CC1 -9.41%
Cc1ccc(-n2nc(C(=O)N3CCCCC3C)c(=O)n(C)c2=O)cc1 (centres undefined) 4.46%
Cc1nn(CCCC(=O)NCc2ccccc2)c(=O)c2c1sc1ccccc12 0.239%
O=C(NC1CC(=O)N(c2ccccc2)C1)C1CCCC1 (centres undefined) -17.1%
Cc1ccc2c(c1)c(=O)c1ccccc1n2CCCC(=O)Nc1ccc(F)cc1F -32%
COC(=O)c1ccc2nc(C)cc(Nc3ccc(O)cc3)c2c1 -4.64%
COc1ccc(NC(=O)Cn2c(=O)n(-c3ccc(Cl)cc3)c(=O)c3c(C)c(C(=O)N(C)C)sc32)cc1Cl 1.63%
COC(=O)c1cc(Cl)c(NC(=O)/C=C/c2ccc(Cl)cc2Cl)cc1OC 5.46%
CCOC(=O)c1ccc(NC2=CC(c3ccc(Br)cc3)N(c3ccc(C(=O)OCC)cc3)C2=O)cc1 (centres undefined) -6.34%
Cc1cccc(C2NC(=O)c3c(sc4c3CCN(C)C4)N2)c1O (centres undefined) 42.5%
CCOC(=O)c1ccc(NC(=O)C(=O)NCc2ccco2)cc1 4.59% [at 11.5 µM]
COc1cccc(Cc2nc3ccccc3nc2SCC(=O)N2CCc3ccccc32)c1 -12.1%
Cc1cccc(Oc2nc3c(C)cccn3c(=O)c2/C=C(\C#N)c2nc3ccccc3s2)c1 5.88%
O=S(=O)(c1ccccc1)c1nc(-c2cccc(Cl)c2)oc1NCc1ccccc1 -7.21%
COc1ccc(Br)c2c1-c1nc(NC(=O)c3ccccc3SC)sc1C2 -3.71%
COCCNC(=O)CSc1nnc(-c2ccc(OC)c(OC)c2)c(-c2ccc(OC)c(OC)c2)n1 -13.6%
Cc1c(C(=O)NCCN(C)C)oc2c1-c1nn(Cc3ccccc3Cl)cc1CC2 6.04%
COc1ccccc1-c1c(C)nn2c(N3CCN(c4ccc(Cl)cc4)CC3)cc(C)nc12 -9.44%
CCOC(=O)c1ccc(Nc2nc(C)cc(C)n2)cc1 5.19%
CC(Sc1nc(-c2ccccc2)c(C#N)c(=O)[nH]1)C(=O)Nc1ccc(F)cc1 (centres undefined) -13.4%
COc1ccc(N(CC(=O)N2CCN(c3cc(C)ccc3C)CC2)S(=O)(=O)c2c(C)noc2C)cc1 -6.45%
Cc1ccc(-n2ncc3c(NNC(=O)c4ccccc4C)ncnc32)cc1 -22.3%
COc1ccc(-c2c(C)nn3c(N4CCC(C(=O)NCCC(C)C)CC4)cc(C)nc23)cc1OC -8.36%
CC(C)CCn1c(SCc2ccc(F)cc2Cl)nc2ccsc2c1=O -4.97%
CC1=C(C(=O)Nc2ccccc2)C(c2ccc(C(=O)O)cc2)n2nc(SCC(=O)c3ccc(C)cc3)nc2N1 (centres undefined) 8.64%
CCc1ccc(-c2[nH]c3c(c2-c2c(-n4cccc4)n(C)c(=O)n(C)c2=O)c(=O)n(C)c(=O)n3C)cc1 -4.23%
Cc1ccc(Cn2c(=O)c3c(nc4n3CCN4c3cc(C)cc(C)c3)n(C)c2=O)cc1 70.5%
COc1ccc(-c2nc(CCNC(=O)c3cc(OC)c(OC)c(OC)c3)cs2)cc1 -6.55%
COCCCNC(=O)c1ccc(NC(=O)N2CCCCc3ccccc32)cc1 -15.3%
CCCN1CCN(CC2=C(C(=O)OCC)C(c3ccc(Cl)cc3)NC(=O)N2)CC1 (centres undefined) -4.33%
COc1ccc(Cl)cc1NC(=O)CCCn1c(=O)c2cccn2c2cccnc21 -15.2%
COC(=O)c1c(NC(=O)c2ccc(S(=O)(=O)N3CCCCC3C)cc2)sc2c1CCN(C(C)C)C2 (centres undefined) -9.31%
CCOC(=O)N1CCc2c(sc(NCc3ccc(OC)c(Br)c3)c2C(=O)Nc2cc(OC)ccc2OC)C1 -9.21%
CCOC(=O)c1ccccc1NC(=O)N(Cc1ccc(C)cc1)Cc1cccn1-c1nnc(N2CCCC2=O)s1 -5.46%
CCC(C)n1c(=N)c(S(=O)(=O)c2ccc(C)cc2)cc2c(=O)n3cc(C)ccc3nc21 (centres undefined) 0.835%
COc1cccc(NC(=O)Cn2c(=O)n(CCCC(=O)NCc3ccc4c(c3)OCO4)c(=O)c3ccccc32)c1 -11.8%
Cc1ccc(CNC(=O)c2c(-c3ccccc3F)noc2C)o1 -15.8%
COC(=O)c1nnn(CC(=O)NC(=O)Nc2ccccc2F)c1C(=O)OC -11.8%
Cc1noc(NS(=O)(=O)c2ccc(NC(=O)c3ccc(Br)cc3)cc2)c1C -10.3%
CCN1CCC(N(Cc2ccc(F)cc2)C(=O)Nc2cccc(C(F)(F)F)c2)CC1 -29.2%
CCc1ccccc1Nc1nn2c(=O)c3ccc(C(=O)Nc4ccc(OC)cc4)cc3nc2s1 -24.7%
O=C(CSc1nc2ccccc2nc1Cc1ccccc1)N1CCN(c2ccccc2)CC1 -2.43%
Cc1cccc(NC(=O)NCCOCCn2c(=O)oc3ccccc32)c1C -2.88%
COc1ccc(CCC(=O)NCc2nc3cccnc3n2Cc2ccccc2)cc1 0.543%
CC(C)Oc1ccc(C(=O)Nc2ccc(-c3nc4ccccc4s3)cc2)cc1 7.09%
COc1ccccc1C(=O)Nc1cc(-c2ccc(C)cc2)no1 54.8%
Cc1ccccc1Cn1c(CN2CCN(c3cc(Cl)ccc3C)CC2)nc2c1c(=O)[nH]c(=O)n2C 2.18%
Cc1ccc(Cl)cc1NC(=O)CCCN1C(=O)CCn2nc(-c3cn(C)c4ccccc34)cc21 -6.86%
CCOc1ccc(CCNC(=O)CCn2c(=O)c3cccn3c3cccnc32)cc1 -7.47%
COc1ccc(N2CCN(C(=O)c3cc4cc5ccc(Cl)cc5nc4o3)CC2)cc1 5.93%
COc1ccc(C)cc1S(=O)(=O)NCC(c1ccc(N(C)C)cc1)N1CCc2ccccc21 (centres undefined) -28.5%
CCC(=O)Nc1ccccc1-c1nc2ccccc2n(C(C)C(=O)Nc2ccc(OC)cc2)c1=O (centres undefined) 47%
O=C(O)c1ccc(N2C(=O)c3[nH]nc(-c4ccccc4)c3C2c2cccc(F)c2)cc1 (centres undefined) -1.14%
CN(c1ccccc1)c1ncnc2c1cnn2C 23.5%
Cc1cc(NC(=O)N2CCC(CN3CCOCC3)CC2)ccc1Br -13.1%
COc1cccc(C2C(=O)N(C3CCCCC3)CC(=O)N2Cc2ccc(Cl)cc2)c1 (centres undefined) -19.6%
CCc1ccc(C2C(C(=O)Nc3ccc(Cl)cc3)=C(C)Nc3ncnn32)cc1 (centres undefined) -27.1%
Cc1ccc2c(c1)C(=O)OC(C(=O)Nc1ncc(Cc3ccccc3)s1)C2 (centres undefined) 6.79%

Reference: PubChem BioAssay AID1508623 (National Center for Advancing Translational Sciences (NCATS), 2021)
